Data published in paper PMC4336329 (PLoS ONE, 2015).
Among all 310,000 compounds or so, about 2,200 (0.71%) showed an effect of 50% or more. The effect is printed as a negative number. This is one part of the list.

Molecular target: human ether-à-go-go-related gene (hERG) potassium channel (human, UniProt Q12809)
Test: primary screen, population patch clamp on CHO cells stably expressing hERG

Chain of human ether-à-go-go-related gene (hERG) potassium channel (Q12809 whole entry, looked up): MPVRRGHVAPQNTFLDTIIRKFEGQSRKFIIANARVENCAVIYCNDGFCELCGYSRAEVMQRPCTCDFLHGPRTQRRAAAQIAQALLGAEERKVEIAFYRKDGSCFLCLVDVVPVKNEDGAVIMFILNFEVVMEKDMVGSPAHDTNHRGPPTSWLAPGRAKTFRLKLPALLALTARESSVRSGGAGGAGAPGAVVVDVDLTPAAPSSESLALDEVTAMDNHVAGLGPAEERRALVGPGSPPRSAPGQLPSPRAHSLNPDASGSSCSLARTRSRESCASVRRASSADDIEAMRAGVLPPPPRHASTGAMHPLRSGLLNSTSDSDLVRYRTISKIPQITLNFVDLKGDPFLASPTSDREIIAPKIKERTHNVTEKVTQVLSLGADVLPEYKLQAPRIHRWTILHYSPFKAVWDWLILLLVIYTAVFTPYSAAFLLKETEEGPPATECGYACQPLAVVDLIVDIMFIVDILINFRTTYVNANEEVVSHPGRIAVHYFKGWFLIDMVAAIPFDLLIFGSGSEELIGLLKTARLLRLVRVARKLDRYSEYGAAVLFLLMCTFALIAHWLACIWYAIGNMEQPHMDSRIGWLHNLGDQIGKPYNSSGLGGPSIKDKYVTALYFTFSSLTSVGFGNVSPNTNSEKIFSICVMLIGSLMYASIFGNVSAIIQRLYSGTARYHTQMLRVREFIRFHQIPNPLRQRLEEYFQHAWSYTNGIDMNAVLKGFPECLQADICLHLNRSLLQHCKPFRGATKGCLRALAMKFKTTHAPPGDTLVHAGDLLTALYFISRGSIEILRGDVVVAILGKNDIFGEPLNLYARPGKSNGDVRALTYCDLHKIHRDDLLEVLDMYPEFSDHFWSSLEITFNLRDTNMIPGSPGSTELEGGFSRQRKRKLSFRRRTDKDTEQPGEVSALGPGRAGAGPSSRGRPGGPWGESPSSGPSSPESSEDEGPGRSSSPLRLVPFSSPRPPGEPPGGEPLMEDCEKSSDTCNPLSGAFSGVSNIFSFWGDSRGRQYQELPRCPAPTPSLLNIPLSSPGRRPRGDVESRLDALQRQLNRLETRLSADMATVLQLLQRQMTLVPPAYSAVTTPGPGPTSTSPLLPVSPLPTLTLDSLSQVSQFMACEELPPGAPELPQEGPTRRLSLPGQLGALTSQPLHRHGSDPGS

| SMILES | hERG current change (%, negative = inhibition) at 1uM |
| --- | --- |
| CCOc1cccc(OCCOCCn2cnc3ccccc3c2=O)c1 | 5.04% |
| O=S(=O)(NCCc1ccccn1)c1cc(Cl)cc(Cl)c1O | 0.753% |
| Cc1nc2sc(C(c3ccco3)N3CCc4ccccc4C3)c(O)n2n1 (stereo not drawn) | 11% |
| CCOC(=O)Cc1nnc(Nc2cccc(O)c2)c2ccccc12 | -1.84% |
| COc1cccc(C2c3[nH]c4ccccc4c3C[C@H]3C(=O)N(c4ccccc4C(=O)N4CCCC4C(=O)O)C(=O)N23)c1 (stereo partly drawn) | 2.86% |
| O=C(CSc1nc2ccccc2c(=O)n1NC(=O)c1ccccc1)c1ccc(Cl)cc1 | 1.44% |
| COc1cccc(N(C(=O)CS(=O)CC(=O)Nc2ccc(F)cc2)C(C(=O)NC2CCCCC2)c2cccs2)c1 (stereo not drawn) | 16.5% |
| O=C(OCc1ccccc1)C1=NNC2C(=O)N(Cc3ccccc3)C(=O)C12 (stereo not drawn) | 15% |
| CCCn1c(=N)c(C(=O)NCc2ccc3c(c2)OCO3)cc2c(=O)n3cccc(C)c3nc21 | -67.3% |
| CCCCNC(=O)CCc1nc2cccnc2n1Cc1ccccc1 | -34.7% |
| CCOC(=O)Cn1c(-c2cccnc2Cl)nc2cc(C)c(C)cc21 | -1.17% |
| CC1(C(=O)Nc2nnc(SCc3ccccc3)s2)Cc2ccccc2C(=O)O1 (stereo not drawn) | -7.87% |
| CC(=O)c1ccc(N=C2SCCCN2C(=O)C2CCCC2)cc1 | 8.31% |
| CSc1nc(N)nc(SC2C=CCCC2)c1C#N (stereo not drawn) | 1.47% |
| Cc1ccc(NCc2nnc(SCC(=O)N3CCCCC3)n2CC2CCCO2)c(C)c1 (stereo not drawn) | 5.47% |
| Cc1cc(C)nc(N(C#N)Cc2ccc(Cl)cc2)n1 | 4.06% |
| COc1ccc(CCNC(=O)CCCN2C(=O)c3ccccc3C2=O)cc1OC | 9.17% |
| Cc1cc(S(=O)(=O)N2CCCC2)ccc1OCC(=O)NC1CCCC1 | 7.01% |
| COc1cc(CN2CCN(c3cc(C)ccc3C)CC2)cc([N+](=O)[O-])c1O | 10.5% |

| SMILES | hERG current change (%, negative = inhibition) at 1uM |
| --- | --- |
| Cc1cc(C)n(-c2nc(O)cc(=O)[nH]2)n1 | 5.82% |
| CC#CC(=O)N1CCC(CCC(=O)N(C)Cc2ccccc2)CC1 | 6.18% |
| COc1ccccc1NC(=S)N1CCN(c2ncccn2)CC1 | 22% |
| CN(CC(=O)Nn1cnnc1)S(=O)(=O)c1cc(Cl)ccc1Cl | 4.66% |
| Cc1nnc(SCc2cccc3ccccc23)n(N)c1=O | 10.7% |
| CCOc1ccc(NC(=S)N2CCC(c3ccc(C)cc3)C2)cc1 (stereo not drawn) | 5.24% |
| COC(=O)NNC(=O)COc1ccc(Br)c(C)c1 | -20.7% |
| CN(C)c1ccc(C(=O)c2ccc(O)cc2O)cc1 | -2.15% |
| O=C(NCc1ccco1)C1CC(c2ccc(F)cc2)=NO1 (stereo not drawn) | 9.9% |
| c1ccc(-c2nnc(C3CC(c4ccncc4)=NO3)o2)cc1 (stereo not drawn) | 3.55% |
| Cc1ccc2c(c1)N(CCC(=O)N1CCC3(CC1)OCCO3)C(=O)CO2 | -11.7% |
| COc1ccc(OC)c(NC(=O)CCCN2C(=S)NC(C)(C)CC2C)c1 (stereo not drawn) | -3.08% |
| COc1ccc(NC(=O)CN(C)C(=O)c2cc(-c3ccc(OC)cc3)nc3ccccc23)cc1 | 10.4% |
| CCOCC(=O)Nc1cc([N+](=O)[O-])ccc1C | 5.71% |
| CCN(CC(=O)Nc1ccccc1C(F)(F)F)C(=O)Cc1ccccc1 | 7.63% |
| CCc1cc(=O)[nH]c(SCC(=O)NCc2ccc3c(c2)OCO3)n1 | 12% |
| O=C(NCCc1ccccc1)C(=O)c1cn(CC(=O)N2CCCC2)c2ccccc12 | 14.4% |
| Cc1nnc2n1-c1ccc(Br)cc1C(c1ccccc1Cl)=NC2 | -14.4% |
| CCn1c(SCC(=O)Nc2ccccc2C(=O)OC)nnc1-c1ccc(N)cc1 | -11.7% |

| SMILES | hERG current change (%, negative = inhibition) at 1uM |
| --- | --- |
| N#C/C=C/N1CCC(Cc2ccccc2)CC1 | 0.255% |
| OCCC1CN(Cc2ccc3cccc(F)c3n2)CCN1Cc1ccccc1 (stereo not drawn) | -1.84% |
| Cn1c(-c2ccccc2)c[n+]2c1CCCCC2.[Br-] | 8.57% |
| Cc1ccc(S(=O)(=O)N2CCOCC2)cc1NC(=O)CSc1nc2ccccc2c(=O)n1Cc1ccccc1 | 2.96% |
| CN(CCCC(=O)N1CCCC(C(N)=O)C1)S(=O)(=O)c1ccc(F)cc1 (stereo not drawn) | -0.555% |
| CN1Cc2c(N3CCOCC3)nc3sc(C(=O)c4ccccc4)c(N)c3c2CC1(C)C | 12.7% |
| CCCCn1c(CCNC(=O)c2cccs2)nc2ccccc21 | -1.24% |
| Cc1ccc(C(=O)N2C3=C(CCCC3)C(=O)NC23CCCCC3)cc1 | 22.7% |
| CC(=O)NC1=NN(C(C)=O)C2(S1)C(=O)N(C(C)C)c1ccc(C)cc12 (stereo not drawn) | 11.8% |
| CCCNC(=O)CSc1nc2ccc(OCC)cc2s1 | 11.2% |
| CCOC(=O)c1cc(-c2ccccc2)n(CC(=O)Nc2ccc(OC)cc2)c1C | 7.73% |
| CC(=O)c1ccc(S(=O)(=O)N2CCN(C(=O)CSc3ccc(C)c(C)c3)CC2)cc1 | 6.06% |
| Cc1ccsc1C(=O)C1CCCN(Cc2cnc(N)nc2)C1 (stereo not drawn) | 4.23% |
| COc1cccc(OC)c1C(=O)N1CCN(Cc2cccnc2)CC1 | 17.5% |
| CCN1C(C(=O)Nc2cc(C)on2)=C(O)c2ccccc2S1(=O)=O | 17.4% |
| Cc1ccc(CC2CC(=O)N(c3cc(Cl)ccn3)C2=O)cc1 (stereo not drawn) | 6.44% |
| COc1ccc(-c2nc3ccccc3nc2-c2ccccc2)cc1OC | 9.5% |
| C/C(=N\NC(=O)COc1cccc(Cl)c1)c1ccc2c(c1)OCCO2 | 14.6% |
| Cc1ccc(NC(=O)CN(C)C(=O)c2cc(S(=O)(=O)N(C)C)ccc2N2CCCC2)cc1 | 17.1% |
